Test results as given in paper PMC7949046, “Human genetic variants disrupt RGS14 nuclear shuttling and regulation of LTP in hippocampal neurons” (The Journal of Biological Chemistry, 2020).
These are yes or no findings as the source states them, for the method shown. For some of these results: In cells and extracts the contact can be indirect. Some results given as binding are weak or reduced against the parent protein; the word gives no strength. For some of these results: Where a sequence is shown, tags or fusion partners need not be part of it.

Amino acid sequences for entries named in this document (tags omitted).
UniProt O14980: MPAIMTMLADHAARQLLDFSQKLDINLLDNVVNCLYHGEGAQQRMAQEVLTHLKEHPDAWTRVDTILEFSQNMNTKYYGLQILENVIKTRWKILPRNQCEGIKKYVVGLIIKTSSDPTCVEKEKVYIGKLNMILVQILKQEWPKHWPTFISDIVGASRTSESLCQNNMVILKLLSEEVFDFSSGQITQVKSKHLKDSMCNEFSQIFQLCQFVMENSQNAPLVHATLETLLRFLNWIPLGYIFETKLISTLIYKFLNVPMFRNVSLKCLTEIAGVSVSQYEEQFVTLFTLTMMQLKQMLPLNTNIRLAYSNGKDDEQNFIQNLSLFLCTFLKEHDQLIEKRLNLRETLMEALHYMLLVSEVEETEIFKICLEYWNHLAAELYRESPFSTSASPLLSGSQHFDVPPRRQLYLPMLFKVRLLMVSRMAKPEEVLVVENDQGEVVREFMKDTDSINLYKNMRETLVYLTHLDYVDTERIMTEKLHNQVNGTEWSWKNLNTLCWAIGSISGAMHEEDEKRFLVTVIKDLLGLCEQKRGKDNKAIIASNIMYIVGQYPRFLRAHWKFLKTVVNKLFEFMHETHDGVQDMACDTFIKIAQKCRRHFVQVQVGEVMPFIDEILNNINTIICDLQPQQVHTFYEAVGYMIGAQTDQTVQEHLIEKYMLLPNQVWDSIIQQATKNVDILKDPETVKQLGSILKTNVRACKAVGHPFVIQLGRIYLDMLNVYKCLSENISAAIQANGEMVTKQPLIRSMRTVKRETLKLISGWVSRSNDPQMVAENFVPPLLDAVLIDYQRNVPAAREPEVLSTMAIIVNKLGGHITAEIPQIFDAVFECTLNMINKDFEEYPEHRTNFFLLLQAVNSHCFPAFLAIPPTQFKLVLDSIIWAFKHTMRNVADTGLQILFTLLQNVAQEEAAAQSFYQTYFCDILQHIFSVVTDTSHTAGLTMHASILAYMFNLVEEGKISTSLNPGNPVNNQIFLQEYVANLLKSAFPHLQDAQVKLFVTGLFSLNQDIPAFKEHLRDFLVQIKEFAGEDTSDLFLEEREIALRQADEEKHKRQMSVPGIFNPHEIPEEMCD
UniProt P10824: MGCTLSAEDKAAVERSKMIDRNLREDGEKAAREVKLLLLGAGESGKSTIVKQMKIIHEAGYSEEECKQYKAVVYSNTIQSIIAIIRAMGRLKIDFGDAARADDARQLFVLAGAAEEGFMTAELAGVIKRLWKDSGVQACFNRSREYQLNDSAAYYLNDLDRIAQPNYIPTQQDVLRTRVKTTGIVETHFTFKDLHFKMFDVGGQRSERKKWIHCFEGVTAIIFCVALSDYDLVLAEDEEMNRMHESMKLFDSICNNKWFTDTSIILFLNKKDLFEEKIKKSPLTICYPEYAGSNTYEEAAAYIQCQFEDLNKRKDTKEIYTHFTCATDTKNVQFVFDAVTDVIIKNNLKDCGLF

B1: RGS14 WT coexpressed with Flag-XPO1 in HEK293 cells (protein, UniProt O08773 1-544)
chain: MPGKPKHLGVPNGRMVLAVSDGELTSTSGSQAQGEGRGSSLSIHSLPSGPSSPFSTDEQPVASWAQSFERLLQDPRGLAYFTEFLKKEFSAENVTFWQACERFQQIPASDTKQLAQEAHNIYHEFLSSQALSPVNIDRQAWLSEEVLAQPRPDMFRAQQLQIFNLMKFDSYARFVKSPLYQECLLAEAEGRPLREPGSSHLGSPDTARKKPKLKPGKSLPLGVEELGQLPLAEGRPLRKSFRREMPGGAVNSALRRESQGSLNSSASLDLGFLAFVSSKSESHRKSLGSGEGESESRPGKYCCVYLPDGTASLALARPGLTIRDMLAGICEKRGLSLPDIKVYLVGKEQKALVLDQDCTVLADQEVRLENRITFQLELVGLERVVRISAKPTKRLQEALQPILAKHGLSLDQVVLHRPGEKQLVDLENLVSSVASQTLVLDTLPDAKTREASSIPPCRSQGCLPRTQTKDSHLPPLSSSLSVEDASGSTGKRQTCDIEGLVELLNRVQSSGAHDQRGLLRKEDLVLPEFLQLPSQRPGSQEAPP
B2: RGS14 NESm (L503A/L504A) coexpressed with Flag-XPO1 in HEK293 cells (protein, UniProt O08773 1-544)
chain: MPGKPKHLGVPNGRMVLAVSDGELTSTSGSQAQGEGRGSSLSIHSLPSGPSSPFSTDEQPVASWAQSFERLLQDPRGLAYFTEFLKKEFSAENVTFWQACERFQQIPASDTKQLAQEAHNIYHEFLSSQALSPVNIDRQAWLSEEVLAQPRPDMFRAQQLQIFNLMKFDSYARFVKSPLYQECLLAEAEGRPLREPGSSHLGSPDTARKKPKLKPGKSLPLGVEELGQLPLAEGRPLRKSFRREMPGGAVNSALRRESQGSLNSSASLDLGFLAFVSSKSESHRKSLGSGEGESESRPGKYCCVYLPDGTASLALARPGLTIRDMLAGICEKRGLSLPDIKVYLVGKEQKALVLDQDCTVLADQEVRLENRITFQLELVGLERVVRISAKPTKRLQEALQPILAKHGLSLDQVVLHRPGEKQLVDLENLVSSVASQTLVLDTLPDAKTREASSIPPCRSQGCLPRTQTKDSHLPPLSSSLSVEDASGSTGKRQTCDIEGLVEAANRVQSSGAHDQRGLLRKEDLVLPEFLQLPSQRPGSQEAPP
B3: recombinant RGS14 NES (L503A/L504A), purified from E. coli (protein, UniProt O08773 1-544)
chain: MPGKPKHLGVPNGRMVLAVSDGELTSTSGSQAQGEGRGSSLSIHSLPSGPSSPFSTDEQPVASWAQSFERLLQDPRGLAYFTEFLKKEFSAENVTFWQACERFQQIPASDTKQLAQEAHNIYHEFLSSQALSPVNIDRQAWLSEEVLAQPRPDMFRAQQLQIFNLMKFDSYARFVKSPLYQECLLAEAEGRPLREPGSSHLGSPDTARKKPKLKPGKSLPLGVEELGQLPLAEGRPLRKSFRREMPGGAVNSALRRESQGSLNSSASLDLGFLAFVSSKSESHRKSLGSGEGESESRPGKYCCVYLPDGTASLALARPGLTIRDMLAGICEKRGLSLPDIKVYLVGKEQKALVLDQDCTVLADQEVRLENRITFQLELVGLERVVRISAKPTKRLQEALQPILAKHGLSLDQVVLHRPGEKQLVDLENLVSSVASQTLVLDTLPDAKTREASSIPPCRSQGCLPRTQTKDSHLPPLSSSLSVEDASGSTGKRQTCDIEGLVEAANRVQSSGAHDQRGLLRKEDLVLPEFLQLPSQRPGSQEAPP
B4: recombinant RGS14 LR (L504R), purified from E. coli (protein, UniProt O08773 1-544)
chain: MPGKPKHLGVPNGRMVLAVSDGELTSTSGSQAQGEGRGSSLSIHSLPSGPSSPFSTDEQPVASWAQSFERLLQDPRGLAYFTEFLKKEFSAENVTFWQACERFQQIPASDTKQLAQEAHNIYHEFLSSQALSPVNIDRQAWLSEEVLAQPRPDMFRAQQLQIFNLMKFDSYARFVKSPLYQECLLAEAEGRPLREPGSSHLGSPDTARKKPKLKPGKSLPLGVEELGQLPLAEGRPLRKSFRREMPGGAVNSALRRESQGSLNSSASLDLGFLAFVSSKSESHRKSLGSGEGESESRPGKYCCVYLPDGTASLALARPGLTIRDMLAGICEKRGLSLPDIKVYLVGKEQKALVLDQDCTVLADQEVRLENRITFQLELVGLERVVRISAKPTKRLQEALQPILAKHGLSLDQVVLHRPGEKQLVDLENLVSSVASQTLVLDTLPDAKTREASSIPPCRSQGCLPRTQTKDSHLPPLSSSLSVEDASGSTGKRQTCDIEGLVELRNRVQSSGAHDQRGLLRKEDLVLPEFLQLPSQRPGSQEAPP
B5: recombinant RGS14 RQ (R506Q), purified from E. coli (protein, UniProt O08773 1-544)
chain: MPGKPKHLGVPNGRMVLAVSDGELTSTSGSQAQGEGRGSSLSIHSLPSGPSSPFSTDEQPVASWAQSFERLLQDPRGLAYFTEFLKKEFSAENVTFWQACERFQQIPASDTKQLAQEAHNIYHEFLSSQALSPVNIDRQAWLSEEVLAQPRPDMFRAQQLQIFNLMKFDSYARFVKSPLYQECLLAEAEGRPLREPGSSHLGSPDTARKKPKLKPGKSLPLGVEELGQLPLAEGRPLRKSFRREMPGGAVNSALRRESQGSLNSSASLDLGFLAFVSSKSESHRKSLGSGEGESESRPGKYCCVYLPDGTASLALARPGLTIRDMLAGICEKRGLSLPDIKVYLVGKEQKALVLDQDCTVLADQEVRLENRITFQLELVGLERVVRISAKPTKRLQEALQPILAKHGLSLDQVVLHRPGEKQLVDLENLVSSVASQTLVLDTLPDAKTREASSIPPCRSQGCLPRTQTKDSHLPPLSSSLSVEDASGSTGKRQTCDIEGLVELLNQVQSSGAHDQRGLLRKEDLVLPEFLQLPSQRPGSQEAPP
B6: RGS14-Luc, wild type (rat RGS14 fused to Renilla luciferase) (protein, UniProt O08773 1-544)
chain: MPGKPKHLGVPNGRMVLAVSDGELTSTSGSQAQGEGRGSSLSIHSLPSGPSSPFSTDEQPVASWAQSFERLLQDPRGLAYFTEFLKKEFSAENVTFWQACERFQQIPASDTKQLAQEAHNIYHEFLSSQALSPVNIDRQAWLSEEVLAQPRPDMFRAQQLQIFNLMKFDSYARFVKSPLYQECLLAEAEGRPLREPGSSHLGSPDTARKKPKLKPGKSLPLGVEELGQLPLAEGRPLRKSFRREMPGGAVNSALRRESQGSLNSSASLDLGFLAFVSSKSESHRKSLGSGEGESESRPGKYCCVYLPDGTASLALARPGLTIRDMLAGICEKRGLSLPDIKVYLVGKEQKALVLDQDCTVLADQEVRLENRITFQLELVGLERVVRISAKPTKRLQEALQPILAKHGLSLDQVVLHRPGEKQLVDLENLVSSVASQTLVLDTLPDAKTREASSIPPCRSQGCLPRTQTKDSHLPPLSSSLSVEDASGSTGKRQTCDIEGLVELLNRVQSSGAHDQRGLLRKEDLVLPEFLQLPSQRPGSQEAPP
B7: RGS14-Luc R506Q (human variant R507Q placed in rat RGS14) (protein, UniProt O08773 1-544)
chain: MPGKPKHLGVPNGRMVLAVSDGELTSTSGSQAQGEGRGSSLSIHSLPSGPSSPFSTDEQPVASWAQSFERLLQDPRGLAYFTEFLKKEFSAENVTFWQACERFQQIPASDTKQLAQEAHNIYHEFLSSQALSPVNIDRQAWLSEEVLAQPRPDMFRAQQLQIFNLMKFDSYARFVKSPLYQECLLAEAEGRPLREPGSSHLGSPDTARKKPKLKPGKSLPLGVEELGQLPLAEGRPLRKSFRREMPGGAVNSALRRESQGSLNSSASLDLGFLAFVSSKSESHRKSLGSGEGESESRPGKYCCVYLPDGTASLALARPGLTIRDMLAGICEKRGLSLPDIKVYLVGKEQKALVLDQDCTVLADQEVRLENRITFQLELVGLERVVRISAKPTKRLQEALQPILAKHGLSLDQVVLHRPGEKQLVDLENLVSSVASQTLVLDTLPDAKTREASSIPPCRSQGCLPRTQTKDSHLPPLSSSLSVEDASGSTGKRQTCDIEGLVELLNQVQSSGAHDQRGLLRKEDLVLPEFLQLPSQRPGSQEAPP
B8: RGS14-Luc LR/NLS (L504R with R208A/K209A/K210A) (protein, UniProt O08773 1-544)
chain: MPGKPKHLGVPNGRMVLAVSDGELTSTSGSQAQGEGRGSSLSIHSLPSGPSSPFSTDEQPVASWAQSFERLLQDPRGLAYFTEFLKKEFSAENVTFWQACERFQQIPASDTKQLAQEAHNIYHEFLSSQALSPVNIDRQAWLSEEVLAQPRPDMFRAQQLQIFNLMKFDSYARFVKSPLYQECLLAEAEGRPLREPGSSHLGSPDTAAAAPKLKPGKSLPLGVEELGQLPLAEGRPLRKSFRREMPGGAVNSALRRESQGSLNSSASLDLGFLAFVSSKSESHRKSLGSGEGESESRPGKYCCVYLPDGTASLALARPGLTIRDMLAGICEKRGLSLPDIKVYLVGKEQKALVLDQDCTVLADQEVRLENRITFQLELVGLERVVRISAKPTKRLQEALQPILAKHGLSLDQVVLHRPGEKQLVDLENLVSSVASQTLVLDTLPDAKTREASSIPPCRSQGCLPRTQTKDSHLPPLSSSLSVEDASGSTGKRQTCDIEGLVELRNRVQSSGAHDQRGLLRKEDLVLPEFLQLPSQRPGSQEAPP
B9: RGS14-Luc RQ/NLS (R506Q with R208A/K209A/K210A) (protein, UniProt O08773 1-544)
chain: MPGKPKHLGVPNGRMVLAVSDGELTSTSGSQAQGEGRGSSLSIHSLPSGPSSPFSTDEQPVASWAQSFERLLQDPRGLAYFTEFLKKEFSAENVTFWQACERFQQIPASDTKQLAQEAHNIYHEFLSSQALSPVNIDRQAWLSEEVLAQPRPDMFRAQQLQIFNLMKFDSYARFVKSPLYQECLLAEAEGRPLREPGSSHLGSPDTAAAAPKLKPGKSLPLGVEELGQLPLAEGRPLRKSFRREMPGGAVNSALRRESQGSLNSSASLDLGFLAFVSSKSESHRKSLGSGEGESESRPGKYCCVYLPDGTASLALARPGLTIRDMLAGICEKRGLSLPDIKVYLVGKEQKALVLDQDCTVLADQEVRLENRITFQLELVGLERVVRISAKPTKRLQEALQPILAKHGLSLDQVVLHRPGEKQLVDLENLVSSVASQTLVLDTLPDAKTREASSIPPCRSQGCLPRTQTKDSHLPPLSSSLSVEDASGSTGKRQTCDIEGLVELLNQVQSSGAHDQRGLLRKEDLVLPEFLQLPSQRPGSQEAPP
B10: RGS14-Luc Q515A/R516A (GPRm) (protein, UniProt O08773 1-544)
chain: MPGKPKHLGVPNGRMVLAVSDGELTSTSGSQAQGEGRGSSLSIHSLPSGPSSPFSTDEQPVASWAQSFERLLQDPRGLAYFTEFLKKEFSAENVTFWQACERFQQIPASDTKQLAQEAHNIYHEFLSSQALSPVNIDRQAWLSEEVLAQPRPDMFRAQQLQIFNLMKFDSYARFVKSPLYQECLLAEAEGRPLREPGSSHLGSPDTARKKPKLKPGKSLPLGVEELGQLPLAEGRPLRKSFRREMPGGAVNSALRRESQGSLNSSASLDLGFLAFVSSKSESHRKSLGSGEGESESRPGKYCCVYLPDGTASLALARPGLTIRDMLAGICEKRGLSLPDIKVYLVGKEQKALVLDQDCTVLADQEVRLENRITFQLELVGLERVVRISAKPTKRLQEALQPILAKHGLSLDQVVLHRPGEKQLVDLENLVSSVASQTLVLDTLPDAKTREASSIPPCRSQGCLPRTQTKDSHLPPLSSSLSVEDASGSTGKRQTCDIEGLVELLNRVQSSGAHDAAGLLRKEDLVLPEFLQLPSQRPGSQEAPP

What follows are binders tested against Flag-XPO1 (Flag-hCRM1) (human) (UniProt O14980) (assay: co-IP; Flag-XPO1 and RGS14 WT or NES transfected into HEK cells; Flag immunoprecipitated (Flag affinity gel); RGS14 and XPO1 measured by immunoblot).

How did the binding turn out when B1 was run?
The binding was “binds”.

For B2, which binding is on record?
Its binding is “no binding”.

Each binder was assayed against T1, purified XPO1-GST (GST-CRM1, Exportin 1) (human, UniProt O14980 1-1071) (assay: pull-down; purified RGS14 mixed 2 h with purified XPO1-GST and His-Ran Q69L-GTP; His-Ran captured on Ni-NTA; Coomassie and immunoblot; both purified).
T1 construct: Results and legend name the protein of the pull-down XPO1-GST / GST-XPO1, but the methods say that CRM1/XPO1 was cleaved from the beads with TEV protease; also called GST-XPO1; CRM1/XPO1; source: E. coli BL21, purified (glutathione Sepharose 4B)

B3 was tested. Which binding did it give?
Its binding is “no binding”.

B4 was tested. Which binding did it give?
The binding was “no binding”.

With B5 as the binder, how does the binding read?
The binding was “no binding”.

The binders below were run against Gαi1-YFP (UniProt P10824) (assay: FRET or BRET; live HEK293 cells transiently transfected (40 h) with RGS14-Luc (donor) and Gαi1-YFP (acceptor); net BRET against the acceptor/donor ratio, or static net BRET; Tyrode's solution pH 7.4, 5 μM coelenterazine H).

For B6, which binding is on record?
Its binding is “binds”.

How did the binding turn out when B7 was run?
Its binding is “binds”.

Which binding does the source give for B8 here?
The binding was “binds”.

How did the binding turn out when B9 was run?
The binding was “binds”.

Which binding does the source give for B10 here?
Its binding is “no binding”.
